Out of some 310,000 compounds screened, about 2,200 (0.71%) showed an effect of 50% or more. The effect is printed as a negative number. Some of the results follow.
What follows are compounds tested against human ether-à-go-go-related gene (hERG) potassium channel (human, UniProt Q12809) (assay: primary screen, population patch clamp on CHO cells stably expressing hERG).
Chain of human ether-à-go-go-related gene (hERG) potassium channel (Q12809 whole entry, looked up): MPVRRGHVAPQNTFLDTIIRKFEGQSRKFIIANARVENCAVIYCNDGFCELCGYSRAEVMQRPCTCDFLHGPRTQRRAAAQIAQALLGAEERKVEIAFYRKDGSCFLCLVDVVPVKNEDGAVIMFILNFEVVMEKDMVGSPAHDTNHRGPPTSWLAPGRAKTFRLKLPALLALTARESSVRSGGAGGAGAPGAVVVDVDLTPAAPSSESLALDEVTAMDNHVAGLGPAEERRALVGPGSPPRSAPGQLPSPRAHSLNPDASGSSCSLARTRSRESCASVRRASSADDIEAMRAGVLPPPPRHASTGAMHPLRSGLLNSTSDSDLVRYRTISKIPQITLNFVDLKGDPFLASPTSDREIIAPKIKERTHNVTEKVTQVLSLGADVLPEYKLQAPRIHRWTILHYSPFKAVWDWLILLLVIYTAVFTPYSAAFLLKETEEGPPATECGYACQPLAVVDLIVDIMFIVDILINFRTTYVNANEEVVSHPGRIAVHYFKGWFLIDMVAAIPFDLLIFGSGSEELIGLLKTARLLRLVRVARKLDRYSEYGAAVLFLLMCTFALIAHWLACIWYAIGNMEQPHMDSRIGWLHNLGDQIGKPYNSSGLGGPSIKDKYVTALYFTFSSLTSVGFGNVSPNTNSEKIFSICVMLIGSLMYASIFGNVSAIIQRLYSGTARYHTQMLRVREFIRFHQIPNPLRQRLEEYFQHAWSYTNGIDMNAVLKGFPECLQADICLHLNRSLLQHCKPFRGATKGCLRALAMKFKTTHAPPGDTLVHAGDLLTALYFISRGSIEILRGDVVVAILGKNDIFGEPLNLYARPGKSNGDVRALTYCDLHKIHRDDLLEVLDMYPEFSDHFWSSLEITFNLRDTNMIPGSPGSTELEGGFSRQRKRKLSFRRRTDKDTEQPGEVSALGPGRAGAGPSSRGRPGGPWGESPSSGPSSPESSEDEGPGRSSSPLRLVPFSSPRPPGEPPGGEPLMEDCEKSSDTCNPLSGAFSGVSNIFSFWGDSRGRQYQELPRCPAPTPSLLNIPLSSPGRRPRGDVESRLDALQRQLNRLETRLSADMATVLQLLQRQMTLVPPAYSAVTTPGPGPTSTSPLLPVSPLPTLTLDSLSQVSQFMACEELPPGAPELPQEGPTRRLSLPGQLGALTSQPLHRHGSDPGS

| SMILES | hERG current change (%, negative = inhibition) at 1uM [%] |
| --- | --- |
| O=C(NN=C1CCCC1)c1ccc(Cl)cc1 | 2.23 |
| Cc1ccc2c(c1)sc1nc(=O)n(-c3ccccc3)c(=O)n12 | 5.98 |
| Cc1c(Cl)cccc1NC(=O)CSc1nnc(C)n1CC1CCCO1 (stereo not shown) | 13.5 |
| CCOC(=O)c1nn(-c2ccc(F)cc2)c2nc(-c3ccccc3)c(C#N)c(=O)n12 | 39.3 |
| Clc1cccc(-c2ccc(/C=N/n3cnnc3)o2)c1Cl | 6.11 |
| Cc1sc2nc(CSCC(=O)N(CCC#N)c3ccccc3)[nH]c(=O)c2c1C | 8.33 |
| C#CCOCCOCCOCCNc1nc(N2CCN(C(=O)CCCCCCCCCCNC(=O)Cn3cc(C[C@@H](C)O)nn3)CC2)nc(N2CCN(C(=O)CCCCCCCCCCNC(=O)[C@H](CCCCN)n3cc(CCCC(=O)O)nn3)CC2)n1 | 10.8 |
| CC(=O)Oc1ccc2c(c1)C(=O)c1ccccc1C2=O | 12.9 |
| Cc1cccc(NC(=O)C(C)C(=O)c2ccccc2)c1 (stereo not shown) | 13.5 |
| OCCn1c(C(F)(F)F)nc2ccccc21 | 7.56 |
| c1ccc(CSc2nnc(-c3ccco3)c(-c3ccco3)n2)cc1 | 7.67 |
| CCO[C@H]1OC(C(=O)Nc2ccccc2)=C[C@@H](c2ccc(C(F)(F)F)cc2)[C@@H]1CCCO | 6.01 |
| CC(=O)Nc1ccc(S(=O)(=O)Nc2ccccc2C(=O)N2CCCCC2)cc1 | 14.9 |
| S=C(Nc1ccc(Cl)cc1)Nc1cccc2cnccc12 | 3.31 |
| COCCNC(=O)C(c1ccc(O)cc1)N(Cc1ccco1)C(=O)CCC(=O)Nc1nccs1 (stereo not shown) | 0.253 |
| CCOC(=O)c1ccc(NS(=O)(=O)c2ccc3c(c2)CCCN3C(C)=O)cc1 | 10.2 |
| COc1ccc(Cc2nnc(-c3ccc(F)cc3)o2)cc1OC | 1.32 |
| COc1cccc(N/C=C/c2onc(C)c2[N+](=O)[O-])c1 | 8.87 |
| CN1CCN(C2=Cc3ccccc3Sc3cc(F)c(Cl)cc32)CC1.O=C(O)/C=C\C(=O)O | 4.3 |
| Cc1cc(S(=O)(=O)NC2CCCCC2)ccc1OCC(=O)N1CCOCC1 | 13.5 |
| O=C(CCN1CCN(C(=O)c2ccccc2)CC1)c1ccc(Br)cc1 | 0.232 |
| Cc1ccc(S(=O)(=O)NC(=O)Nc2nnc(C)s2)cc1 | 12.7 |

| SMILES | hERG current change (%, negative = inhibition) at 1uM [%] |
| --- | --- |
| COCCn1c(=S)[nH]c2cc(C(=O)N3CC(C)CC(C)C3)ccc2c1=O (stereo not shown) | 17.2 |
| CC1(c2nnc(-c3ccccc3)o2)CC(c2ccc(Cl)cc2)=NO1 (stereo not shown) | 1.16 |
| Cc1ccc(CNC(=O)CN(Cc2cccs2)C(=O)C2(C)CC(=O)N=C3C=CC=CN32)cc1 (stereo not shown) | 14.2 |
| O=C1c2cccc3cccc(c23)C(=O)N1c1nncs1 | 5.54 |
| Cc1ccc(O)c(CNn2cnnc2)c1 | -0.43 |
| Cc1ccc(S(=O)(=O)Oc2ccc(/C=C(/NC(=O)c3ccccc3)C(=O)NCCC(=O)O)cc2)cc1 | 10.2 |
| O=c1oc2ccccc2cc1-c1cn(-c2ccccc2)c(=S)[nH]1 | 9.58 |
| COc1cc(C(c2c(C(=O)O)[nH]c3ccccc23)c2c(C(=O)O)[nH]c3ccccc23)ccc1OCc1ccccc1 | 14 |
| CN(CC(=O)Nc1ccccc1Cl)C(=O)c1ccccc1SCC(=O)N1CCCC1 | -0.529 |
| Cc1cccc(C)c1NC(=O)C1(N(Cc2ccco2)C(=O)c2ccccn2)CCCC1 | 15.1 |
| CCOC(=O)Cc1csc(NC(=O)CN2CCN(CC)CC2)n1 | 12.1 |
| CC(=O)c1c(C(C)=O)c(C)n(-c2cccc3cccnc23)c1C | 9.1 |
| Cc1c(C(=O)N2CCN(Cc3ccccc3)CC2)oc2c1C(=O)CCC2 | -0.367 |
| COC(=O)[C@@H](NCc1cccc(CN([C@H](C(=O)OC)C(C)C)S(C)(=O)=O)c1)C(C)C | 6.74 |
| CCOC(=O)c1c(NC(=O)CSc2nnc3c(n2)[nH]c2ccc(F)cc23)sc(C(C)=O)c1C | 14.2 |
| COCc1ccc(C(=O)NC2CC(C)(C)Cc3c2cnn3-c2ccc(OC)cc2)o1 (stereo not shown) | 5.02 |
| O=C(O)C1CCN(C(=O)c2ccc(Cl)cc2)CC1 | 11.2 |
| CC(=O)N(C)c1ccc(NC(=O)C(Sc2ccccc2)c2ccccc2)cc1 (stereo not shown) | 11.7 |
| CCN1/C(=C/C=C/C=C/c2sc3ccccc3[n+]2CC)Sc2ccccc21.[I-] | -37.5 |
| COc1ccccc1OCc1cc(C(=O)N2CCN(C)C(c3ccccc3)C2)no1 (stereo not shown) | -11.4 |
| Cc1ccc(N(CC(=O)NCc2ccco2)C(=O)CNS(=O)(=O)c2ccc(F)cc2)c(C)c1 | 11.2 |
| Cn1c2c(c(=O)n3ncnc13)CCCC2 | 14.7 |

| SMILES | hERG current change (%, negative = inhibition) at 1uM [%] |
| --- | --- |
| Cc1cc(=O)[nH]c(SCC(=O)N2CCCCCC2)n1 | 15.7 |
| Cc1cccc(CSCC(=O)NCc2ccc(S(N)(=O)=O)cc2)c1 | 21.9 |
| CC1(C)CC2CC(C)(CN2Cc2cccc([N+](=O)[O-])c2)C1 (stereo not shown) | 19.1 |
| CCCC(=O)NCCCc1nc2ccccc2n1CCC | 5 |
| COC(=O)C(C)N(C(=O)c1ccc(Cl)cc1)c1c(C)cccc1C (stereo not shown) | -1.75 |
| COc1ccc(Cc2nnc(Cl)c3ccccc23)cc1OC | 7.12 |
| COc1cc(NS(=O)(=O)c2cc(C)ccc2OC)c(OC)cc1Cl | 7.54 |
| COC(=O)CNC(=O)CCCCC(=O)NCC(=O)OC | 19.2 |
| COc1ccc(C(=O)C2CCCN(C(=O)c3ccnn3C)C2)c(C)c1 (stereo not shown) | 4.96 |
| O=C(NCCCN1CCCCC1)C1(S(=O)(=O)c2ccc(Cl)cc2)CC1 | -7.63 |
| Cc1ccccc1Cn1c(NC2CCCC2)nc2c1c(=O)[nH]c(=O)n2C | 10.3 |
| CN(C)C(=O)c1ccc(NC(=O)COC(=O)C2CCN(S(=O)(=O)c3ccc4c(c3)OCCO4)CC2)cc1 | 11.5 |
| O=C(CSCC(=O)N1CCCc2ccccc21)Nc1nc(-c2ccccc2)cs1 | 11.5 |
| O=C(CSc1nc2ccccc2c(=O)[nH]1)Nc1ccc(N2CCOCC2)cc1 | 6.08 |
| Cc1cc(NC(=O)C2CCCN(S(=O)(=O)c3cnc[nH]3)C2)ccc1Br (stereo not shown) | 13.9 |
| O=S(=O)(c1ccc2ccccc2c1)N1CCc2ccccc21 | 12.2 |
| O=[N+]([O-])c1ccc(OCCCOc2cccc3cccnc23)cc1 | 3.42 |
| COc1cccc([C@@H]2CC=C(C(=O)O)[C@H](c3ccc(Cl)cc3)N2S(=O)(=O)c2ccc(C)cc2)c1 | 13.7 |
| O=C(O)CSc1nnc(-c2cccc(S(=O)(=O)N3CCOCC3)c2)n1-c1cccc(Cl)c1 | 0.918 |
| COc1ccc(CN2CCC(=O)N([C@H](CO)c3ccccc3)CC2)cc1 | 13.3 |
| Cc1ccn2c(=O)nc(SCC(=O)Nc3cccc4ccccc34)nc2c1 | 5.56 |
| Cc1ccccc1NS(=O)(=O)c1csc(C(N)=O)c1 | 20 |

| SMILES | hERG current change (%, negative = inhibition) at 1uM [%] |
| --- | --- |
| O=C(COc1ccc2ccc(=O)oc2c1)NC1CCCCC1 | 3.46 |
| Cc1ccc(NC(=S)N2CCC(NC(=O)c3ccc(F)cc3)CC2)cc1 | 8.66 |
| Cc1ccc(C)c(NC(=O)CSc2n[nH]c(-c3ccccn3)n2)c1 | 12 |
| Cc1cccc(C(=O)Nc2nnc(S(=O)(=O)N3CCC(C)CC3)s2)c1 | 0.95 |
| NC(=O)C[C@@H]1NC(=O)[C@H](CCC(=O)O)NC(=O)c2cc([N+](=O)[O-])cc(I)c2OCC[C@@H](C(N)=O)NC1=O | 6.69 |
| COc1ccc(NC(=O)CCn2nnc(-c3ccc(C)cc3)n2)cc1OC | 18.3 |
| OCCNc1ccc(Cl)cc1 | 12.2 |
| CC(C)(C)OC(=O)N1CCC[C@H]1C(=O)N/N=C/c1cccc2cccnc12 | 8.81 |
| CC(CCc1ccccc1)NC(=O)c1ccc(Cl)nc1 (stereo not shown) | 0.944 |
| CC1CCCCC1NC(=O)Cn1cc([N+](=O)[O-])ccc1=O (stereo not shown) | 9.78 |
| CCN(CC(=O)NCc1cccs1)S(=O)(=O)c1cc(NC(C)=O)ccc1OC | 5.11 |
| COc1ccc(C2CC(=O)c3cnn(-c4nc(C)cc(C)n4)c3C2)cc1 (stereo not shown) | 6.08 |
| Cc1ccc(C2/C(=C(/O)c3cnn(-c4ccccc4)c3C)C(=O)C(=O)N2CCN2CCOCC2)o1 (stereo not shown) | 9.19 |
| CC(=O)c1cc(CN2CCN(C3CCCCC3)C(CCO)C2)cs1 (stereo not shown) | 0.381 |
| CCOC(=O)N1CCN(CC(=O)Nc2c(C(=O)OC)[nH]c3cccc(Cl)c23)CC1 | 14.8 |
| C/C(=N\O)C(C)(C)Nc1cccc(F)c1 | 11.9 |
| O=C(c1c(Cl)nc2sccn12)N1CCN(c2cccc(Cl)c2)CC1 | 2.76 |
| Oc1ccccc1-n1nc2ccc3nonc3c2n1 | 8.13 |
| S=C(NCc1ccccn1)Nc1ccc(Br)cc1Cl | 25 |
